The target of assay [1] is T1, recombinant hMOG_his (human, UniProt Q16653 30-154, limits assumed).
T1 construct: also called human MOG antigen; not shown: His tag
T1 sequence: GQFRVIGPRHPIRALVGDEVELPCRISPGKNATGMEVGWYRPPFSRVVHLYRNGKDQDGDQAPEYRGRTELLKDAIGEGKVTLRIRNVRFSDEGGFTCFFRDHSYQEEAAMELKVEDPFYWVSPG
In words: ELISA, hMOG_his coated at 2 µg/ml, scFv_hFc titrated, anti-huFc-HRP detection. (In an ELISA, binding on a coated surface is turned into a signal by an enzyme label.)

In assay [2] the target is T2, mouse MOG overexpressed on cells (293T-mMOG, K562-mMOG) (mouse, UniProt Q61885 29-246).
T2 construct: whole, on cells
T2 sequence (looked up): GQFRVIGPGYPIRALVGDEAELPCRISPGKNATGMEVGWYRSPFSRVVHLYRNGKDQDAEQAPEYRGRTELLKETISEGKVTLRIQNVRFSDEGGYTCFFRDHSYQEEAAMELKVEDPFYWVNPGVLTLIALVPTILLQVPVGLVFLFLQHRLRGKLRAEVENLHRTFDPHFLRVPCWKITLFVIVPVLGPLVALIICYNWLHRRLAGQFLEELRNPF
Briefly: flow cytometry, scFv_hFc titrated on 293T-mMOG cells. For orientation: A flow cytometer gives signals particle by particle.

Assay [3] addresses T3, human MOG overexpressed on cells (293T-hMOG, K562-hMOG) (human, UniProt Q16653 30-247).
T3 construct: Cells overexpressing human MOG built by conventional techniques; also called K562-huMOG
T3 chain: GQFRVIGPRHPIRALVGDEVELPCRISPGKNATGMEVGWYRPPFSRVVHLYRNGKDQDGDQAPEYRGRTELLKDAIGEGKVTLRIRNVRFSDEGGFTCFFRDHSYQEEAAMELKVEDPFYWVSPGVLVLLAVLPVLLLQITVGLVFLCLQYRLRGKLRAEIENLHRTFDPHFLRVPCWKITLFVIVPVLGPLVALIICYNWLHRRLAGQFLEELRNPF
In words: flow cytometry, scFv_hFc titrated on 293T-hMOG cells.

B1: A9 (scFv_hFc form) (Fc fusion)
chain: [here about 100 residues without letters]PSLADWGDMDYWGQGTLVTVSSGGGGSGGGGSGGGGSDIQMTQSPSTLSASVGDRVTITCRASQSISSWLAWYQQKPGKAPKLLIYDASSLESGVPSRFSGSGSGTEFTLTISSLQPDDFATYYCQQYDQYWTFGQGTKVEIKR
notes: also called A9 scFv-Fc; not shown: human Fc (hFc)
Turning to B1, the values for the EC50 in assay [1], in assay [2] and in assay [3] were 0.135 nM, 130 nM and 12.5 nM, respectively.

As usually defined, the EC50 is the concentration giving half of the maximal effect.

The record behind these values is patent publication US20260218128A1 (CARSGEN LIFE SCIENCES, published 2026).
